PubChem BioAssay AID686978 (National Center for Advancing Translational Sciences (NCATS), 2013)
Values joined by “and” are separate entries in the source; they are usually repeats but may differ in a detail not shown here. Identical values can stand only once. The campaign covered roughly 420,000 compounds. About 64,000 (15%) were called active. Inconclusive means that the source gave no clear call. Such entries were picked first, then a sample of the others. The call rests on the fitted dose curve; in most records, active means well fitted inhibition curve with a large enough effect; inconclusive means small, poorly fitted or top-dose-only effect; inactive means flat fitted curve, though single readings scatter. A potency beside an inconclusive call is a rough fit, not a confirmed value.

Assay: qHTS for Inhibitors of human tyrosyl-DNA phosphodiesterase 1 (TDP1): qHTS in cells in absence of CPT; further: nearly all actives have a fitted effect of over 55% in size
Settings: DT40 Tdp1-/- hTDP1 cells, no CPT, ATP luminescence, 48 h; activity change, negative = growth inhibition: at 46.2 µM (top of the series) unless noted
How it was run: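 Growth of hTDP1-complemented DT40 Tdp1-knockout cells is measured by ATP luminescence after at least 48 hr compound exposure at 37 °C, with DMSO substituting for the 20 nM CPT used in the parallel screen.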
On the % scale 0 is the no-effect control and ±100 the full control effect; potency means the concentration at half of the fitted maximal effect; tags describe the fitted curve by direction and shape.

Row | SMILES | activity change, negative = growth inhibition | Potency
1 | O=C(CCNS(=O)(=O)c1cccc2nsnc12)NCc1ccco1 | inactive: -3.83% | 
2 | NC(c1csc(Nc2cc(Oc3ccccc3)ncn2)n1)c1ccccc1Cl (stereo unspecified) |  | inconclusive: 18.4 µM [inhibitor, single point]
3 | CCOC(=O)c1ccc(NC(=O)C2(c3ccc(OC)cc3)CCCC2)cc1 |  | inconclusive: 25.9 µM [inhibitor, single point]
4 | COc1ccc2c(c1)OC(O)(C(F)(F)F)CC2=O (stereo unspecified) | inactive: -6.08% | 
5 | C/C(=N\NC(=O)c1ccc(Cl)cc1)c1cccs1 |  | inconclusive: 29.1 µM [inhibitor, single point]
6 | CCOC(=O)C(Oc1ccc2c(-c3ccc(OC)cc3)cc(=O)oc2c1C)c1ccccc1 (stereo unspecified) |  | inconclusive: 18.4 µM [inhibitor, single point]
7 | CCC(C)Sc1nc2c(c(=O)n1C)SC(C)C2 (stereo unspecified) |  | inconclusive: 23.1 µM [inhibitor, partial curve]
8 | Cc1ccccc1-c1csc(C(O)c2ccc(F)c(F)c2)n1 (stereo unspecified) |  | inconclusive: 29.1 µM [inhibitor, single point]
9 | COc1ccc(CCNCc2c(C(=O)O)c(C)n(Cc3c(F)cccc3Cl)c2C)cc1OC | inactive: -3.55% | 
10 | S=C(NCCc1c[nH]c2ccccc12)NC1CCCCC1 |  | inconclusive: 29.1 µM [inhibitor, single point]
11 | Cc1ccc(C)c(NC(=O)CCC(=O)NNC(=O)COc2cc(C)ccc2C)c1 | inactive: -14.4% | 
12 | Cc1c(CCC(=O)NCCc2ccccc2)c(=O)oc2cc(O)ccc12 |  | inconclusive: 5.8 µM [inhibitor, full curve]
13 | C[N+]1(CC(O)c2ccccc2)CCCCCC1 (stereo unspecified) | inactive: 1.03% | 
14 | O=S(=O)(c1ccc(F)cc1)N1CCN(c2nc(-c3ccccc3)nc3ccccc23)CC1 |  | active: 12.6 µM
15 | CCOc1ccc2c(c1)c(=O)c(C(=O)c1ccccc1)cn2Cc1ccccc1 |  | active: 14.6 µM
16 | Cc1ccc(C(=O)Nc2c(C(=O)NC(C)(C)C)oc3ccccc23)cc1 |  | inconclusive: 29.1 µM [inhibitor, single point]
17 | CCCOc1ccc(Br)cc1/C=N/O |  | inconclusive: 29.1 µM [inhibitor, single point]
18 | O=C1/C(=C/c2cccnc2)Oc2cc(OS(=O)(=O)c3ccc(Cl)cc3)ccc21 |  | inconclusive: 20.6 µM [inhibitor, single point]
19 | COc1ccc2c(c1)c1c(c(=O)n(-c3ccc(F)c(Cl)c3)c(=O)n1Cc1cccc(C)c1)n2C |  | inconclusive: 3.66 µM [inhibitor, partial curve]
20 | CC(CN1C(C)CCCC1C)OC(=O)c1ccccc1F (stereo unspecified) | inactive: 4.61% | 
21 | O=C1OC(c2cccc([N+](=O)[O-])c2)C2(CCCC2)C(=O)C12CCCCC2 (stereo unspecified) |  | inconclusive: 25.9 µM [inhibitor, partial curve, poor fit]
22 | CC1CN(C(=O)COC(=O)c2ccc(Cl)nc2)CC(C)O1 (stereo unspecified) | inactive: 0.339% | 
23 | COc1cccc(C(C(=O)NC2CCCC2)N(Cc2ccccc2OC)C(=O)c2ccco2)c1 (stereo unspecified) |  | inconclusive: 18.4 µM [inhibitor, single point]
24 | CCN1CCN(Cc2ccc(NC(=O)c3cc(NC(=O)c4nccnc4N)cc(OC)c3)cc2C(F)(F)F)CC1 |  | inconclusive: 16.4 µM [inhibitor, single point]

Row | SMILES | activity change, negative = growth inhibition | Potency
25 | CCCCCCCCN1[C@@H](CC(=O)OC)c2cc(C(F)(F)F)ccc2S1(=O)=O |  | inconclusive: 35.5 µM [inhibitor, single point] and inconclusive: 29.1 µM [inhibitor, single point]
26 | O=C(/C=C\Nc1cccc(F)c1)c1ccc2c(c1)OCO2 | inconclusive: -37.4% [inhibitor] | 
27 | Cc1oc(-c2ccc(Cl)cc2)nc1CN1CCC(C(=O)NCc2cccnc2)CC1 |  | inconclusive: 29.1 µM [inhibitor, single point]
28 | Cc1ccc(-n2nc(C)c3nc(CCC(=O)Nc4cccc(C)c4C)c(=O)n(C)c32)cc1 | inactive: -1.49% | 
29 | CC(=O)NCC(O)c1ccc([N+](=O)[O-])cc1 (stereo unspecified) | inactive: 0.615% | 
30 | CN(C(=O)COC(=O)c1nc(Cl)c(Cl)c(Cl)c1Cl)C1CCS(=O)(=O)C1 (stereo unspecified) |  | active: 20.6 µM
31 | CC(=O)Nc1ccc2nc(-c3ccccn3)[nH]c2c1 | inactive: 0.895% | 
32 | CCc1ccc(N(C(=O)c2ccoc2C)C(C(=O)NC2CCCC2)c2ccc(OC)cc2)cc1 (stereo unspecified) |  | active: 18.4 µM
33 | CC(C)(Oc1ccc(Cl)cc1)C(=O)NCC(c1cccs1)N1CCOCC1 (stereo unspecified) |  | active: 18.4 µM
34 | COc1cc(OC)nc(C(NC(=O)C2CCN(Cc3ccc(N(C)C)cc3)CC2)c2ccc(F)cc2)n1 (stereo unspecified) |  | inconclusive: 29.1 µM [inhibitor, single point]
35 | Cc1cccc(CNc2ncc(-c3cccc([N+](=O)[O-])c3)n2C)c1 |  | active: 16.4 µM
36 | CCCS(=O)(=O)c1nc(S(=O)(=O)c2ccc(C)cc2)c(N(CC)CC)s1 |  | inconclusive: 23.1 µM [inhibitor, single point]
37 | O=C(Cc1ccon1)c1ccc(O)cc1O | inactive: 17.8% | 
38 | Cc1cc(N2C(=O)C3CC=CCC3C2=O)cc(C)c1Br (stereo unspecified) |  | inconclusive: 16.4 µM [inhibitor, partial curve]
39 | Cc1cc(=O)oc2cc(OCCSc3nnc(-c4ccccc4)o3)ccc12 |  | inconclusive: 29.1 µM [inhibitor, single point]
40 | CCNc1ncc2ncc(=O)n(CCOC)c2n1 |  | inconclusive: 29.1 µM [inhibitor, single point]
41 | CCOC(=O)C1=C(C)N=c2s/c(=C3\C(=O)Nc4ccccc43)c(=O)n2C1c1ccc2c(c1)OCO2 (stereo unspecified) |  | inconclusive: 18.4 µM [inhibitor, single point]
42 | N=c1c2c(n(Cc3ccc(F)cc3)c3c1CCC3)CCCC2 |  | active: 1.03 µM
43 | COC(=O)C1=C(C)N(CC(C)C)C(=O)/C1=C\c1cccs1 |  | inconclusive: 16.4 µM [inhibitor, single point]
44 | Cc1cccc(N2C(=O)N(Cc3cc(=O)n4ccccc4n3)c3ccccc3S2(=O)=O)c1 |  | active: 25.9 µM
45 | CC(C)(C)N1C(=O)[C@H]2[C@@H](c3ccc(Br)cc3)N3C(=O)N(c4cccc(Cl)c4)C(=O)[C@@]3(Cc3ccccc3)[C@H]2C1=O |  | active: 20.6 µM
46 | COc1ccc(CNC(=O)Cn2nc3c(cc2=O)CCCC3)cc1 | inactive: -16.4% | 
47 | Cc1cc(C)cc(OCC(O)CN2CCC(CN3C(=O)c4cccc5cccc(c45)C3=O)CC2)c1 (stereo unspecified) |  | inconclusive: 18.4 µM [inhibitor, single point]
48 | O=C(c1cnn2c(C(F)F)cc(-c3ccccc3)nc12)N1CCc2ccccc2C1 |  | inconclusive: 20.6 µM [inhibitor, single point]

Row | SMILES | activity change, negative = growth inhibition | Potency
49 | COc1ccc2[nH]c3c(N4CCC(O)(c5cccc(C(F)(F)F)c5)CC4)ncnc3c2c1 |  | active: 20.6 µM
50 | Cn1cccc1Cc1nnc(SCC(=O)Nc2ccc3c(c2)OCCO3)n1CCc1ccccc1 |  | inconclusive: 23.1 µM [inhibitor, single point]
51 | CC(C)NC(=O)Cn1c(SCC(=O)N2CCCc3ccccc32)nc2ccccc21 | inactive: -9.26% | 
52 | Cc1ccc(-c2cnc(C(O)c3cccc(Cl)c3)[nH]2)cc1 (stereo unspecified) |  | inconclusive: 29.1 µM [inhibitor, single point]
53 | Cc1ccccc1CNC(=O)C1CCN(c2nnc(-n3c(C)ccc3C)s2)CC1 |  | inconclusive: 18.4 µM [inhibitor, single point]
54 | Cc1cccc(C)c1NC(=O)NC1CC2CCC(C1)N2Cc1cccs1 (stereo unspecified) | inactive: -0.612% | 
55 | COc1ccc2c(c1)c(=O)c(S(=O)(=O)c1ccc(Cl)cc1)cn2C |  | inconclusive: 14.6 µM [inhibitor, partial curve]
56 | Cc1cccc(OCC(=O)Nc2ccc(S(=O)(=O)Nc3ccccn3)cc2)c1 |  | inconclusive: 4.61 µM [inhibitor, single point]
57 | CCOC(=O)C1CCN(C2=NC(=O)/C(=C/c3ccc(OC)c(OC)c3)S2)CC1 |  | inconclusive: 29.1 µM [inhibitor, single point]
58 | COCCN=C1Sc2nc3c(C)cccc3cc2CN1Cc1ccco1 |  | inconclusive: 25.9 µM [inhibitor, single point]
59 | COc1cccc(-c2ccc(SCC(=O)N3CCN(c4ccccc4)CC3)nn2)c1 |  | active: 16.4 µM
60 | COc1ccc(S(=O)(=O)Oc2ccccc2C(N)=O)cc1 | inactive: -17.7% | 
61 | Cc1ccc(NC(=O)CN(C)C(=O)c2ccc(S(=O)(=O)N(C)c3ccccc3)cc2)cc1 | inconclusive: -35.1% [inhibitor] | 
62 | CC(C)CN(C(=O)CN1CCN(c2ccc(F)cc2)CC1)c1c(N)n(CC(C)C)c(=O)[nH]c1=O | inactive: -3.32% | 
63 | COc1ccc(NC(=O)c2cc(C3CCCCN3C(=O)OCC(C)C)on2)c(C)c1 (stereo unspecified) |  | inconclusive: 16.4 µM [inhibitor, partial curve]
64 | O=C(NCc1ccc(F)cc1)C1CCC(CNS(=O)(=O)c2cccs2)CC1 (stereo unspecified) | inactive: -29.4% | 
65 | COc1ccc(O)c(-c2cn[nH]c2-c2cccs2)c1 |  | inconclusive: 8.2 µM [inhibitor, partial curve]
66 | COc1ccc(NC(=O)COC(=O)COc2cccc(Br)c2)cc1OC | inactive: 4.58% | 
67 | COCCNC(=O)c1cccc(OC2CCN(Cc3ccccc3OCCO)CC2)c1 | inconclusive: -27% [inhibitor] | 
68 | CC(C)C(NS(=O)(=O)c1cccc2nsnc12)C(=O)NC1CCCCC1C (stereo unspecified) | inactive: -2.89% | 
69 | CC1=C(C(=O)OCc2ccccc2)C(c2ccccc2Br)NC(=O)N1 (stereo unspecified) |  | inconclusive: 23.1 µM [inhibitor, single point]
70 | Cc1cc(Cl)c2oc(C(=O)N(C)Cc3nccn3C)c(C)c2c1 |  | active: 7.31 µM
71 | O=C(COC(=O)c1cc([N+](=O)[O-])ccc1N1CCOCC1)Nc1ncc(Cl)cc1Cl | inactive: 12.3% | 
